# Assay results from article PMC4336329 (PLoS ONE, 2015).
# The whole screen tested about 310,000 compounds, of which about 2,200 (0.71%) showed an effect of 50% or more. The effect is printed as a negative number. The list shows a part of the results.
# Target: human ether-à-go-go-related gene (hERG) potassium channel (human, UniProt Q12809)
# Test: primary screen, population patch clamp on CHO cells stably expressing hERG
# Sequence of human ether-à-go-go-related gene (hERG) potassium channel (Q12809 whole entry, looked up): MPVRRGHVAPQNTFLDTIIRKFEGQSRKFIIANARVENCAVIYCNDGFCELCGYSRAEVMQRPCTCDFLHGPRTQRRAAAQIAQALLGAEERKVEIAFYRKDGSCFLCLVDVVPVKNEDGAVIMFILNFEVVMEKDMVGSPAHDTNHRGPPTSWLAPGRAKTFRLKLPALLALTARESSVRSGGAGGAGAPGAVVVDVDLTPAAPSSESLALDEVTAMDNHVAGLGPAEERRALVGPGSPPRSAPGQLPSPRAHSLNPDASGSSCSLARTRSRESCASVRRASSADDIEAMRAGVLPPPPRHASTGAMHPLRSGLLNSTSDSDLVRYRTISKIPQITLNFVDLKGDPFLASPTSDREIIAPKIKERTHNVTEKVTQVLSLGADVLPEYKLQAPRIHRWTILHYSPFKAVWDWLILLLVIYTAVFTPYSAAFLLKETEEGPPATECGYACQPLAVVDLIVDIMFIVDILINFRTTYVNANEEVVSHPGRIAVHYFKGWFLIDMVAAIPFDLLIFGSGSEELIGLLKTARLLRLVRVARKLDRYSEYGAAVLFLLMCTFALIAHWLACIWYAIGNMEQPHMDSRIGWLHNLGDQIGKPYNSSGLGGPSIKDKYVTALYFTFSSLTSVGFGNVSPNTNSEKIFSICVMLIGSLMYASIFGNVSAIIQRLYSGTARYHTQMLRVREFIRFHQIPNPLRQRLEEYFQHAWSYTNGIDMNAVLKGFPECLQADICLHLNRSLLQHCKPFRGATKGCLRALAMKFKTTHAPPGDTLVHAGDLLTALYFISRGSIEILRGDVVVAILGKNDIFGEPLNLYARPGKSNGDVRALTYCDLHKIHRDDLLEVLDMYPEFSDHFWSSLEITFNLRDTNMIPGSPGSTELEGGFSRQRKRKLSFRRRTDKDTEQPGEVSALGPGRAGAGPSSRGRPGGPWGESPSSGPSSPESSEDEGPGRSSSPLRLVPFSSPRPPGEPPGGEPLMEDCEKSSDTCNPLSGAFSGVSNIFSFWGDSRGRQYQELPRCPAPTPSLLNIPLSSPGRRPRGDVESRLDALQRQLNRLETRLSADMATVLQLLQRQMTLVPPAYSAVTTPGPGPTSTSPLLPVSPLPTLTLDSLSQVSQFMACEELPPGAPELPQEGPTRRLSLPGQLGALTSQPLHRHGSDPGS
row,SMILES,"hERG current change (%, negative = inhibition) at 1uM"
1,O=C(C1CCN(S(=O)(=O)c2ccc(Cl)cc2)CC1)N1CCCC1,0.45%
2,O=C(Cc1ccccc1)Nc1ccc(C(=O)Nc2ccc(O)cc2)cc1,13.6%
3,CC1CCN(c2nc(-c3ccccc3O)nc3ccccc23)CC1,20.4%
4,CC(=O)c1cccc(S(=O)(=O)N2CCN(c3ccccc3F)CC2)c1,5.02%
5,O=C(Cc1ccccc1F)Nc1ccc(S(=O)(=O)Nc2ncccn2)cc1,12.7%
6,CC(C)(C)c1cc(NC(=O)COC(=O)c2nccnc2N)n(-c2ccccc2)n1,17.4%
7,O=C(NNC(=O)[C@@H]1CCCC[C@@H]1C(=O)O)Nc1ccccc1,13.5%
8,Cc1cccc(NC(=O)CSc2n[nH]c(-c3cccnc3)n2)c1,9.5%
9,CCN(CC)/C(N)=N/c1nc(C)cc(C)n1,3.23%
10,COc1c(S(=O)(=O)NCCN2CCOCC2)ccc(Cl)c1Cl,-5.65%
11,CN1CCN(S(=O)(=O)c2ccc(Nc3ccc(F)cc3)c([N+](=O)[O-])c2)CC1,-14.9%
12,Nc1nc(Nc2ccc(Cl)cc2)c(NC=O)c(=O)[nH]1,11.5%
13,COC(=O)c1sccc1NC(=O)CC1C(=O)NCCN1C(=O)c1ccc(F)cc1 (centres unmarked),-5.56%
14,CCn1c(=S)sc2c(=O)[nH]c(C)nc21,13.5%
15,O=C(COc1cccc2cccnc12)NNC(=S)Nc1ccccc1,-6.43%
16,CCOC(=O)C(C)Oc1cc(C)cc2oc(=O)c3c(c12)CCCC3 (centres unmarked),-7.5%
17,CN1C(=O)C(C)(C)c2cc(S(=O)(=O)N3CCCC(C(=O)NCc4ccc(F)cc4)C3)ccc21 (centres unmarked),8.72%
18,Cc1ccc(CN2C(=O)CCC2C(=O)NC2CCCC2)cc1 (centres unmarked),10.1%
19,O=C(COc1cc2oc(=O)c3c(c2cc1Cl)CCC3)N1C[C@H]2C[C@@H](C1)c1cccc(=O)n1C2,-5.28%
20,CC(=O)c1ccc(OCC(=O)OCC(=O)NCc2ccco2)cc1,13%
21,Cc1ccc[n+](CC(=O)Nc2nc3ccccc3s2)c1.[Cl-],15.2%
22,O=c1c(-c2ccc(Cl)cc2)coc2c(CN3CCCCC3)c(O)ccc12,-1.1%

row,SMILES,"hERG current change (%, negative = inhibition) at 1uM"
1,CCCCCn1c(=S)[nH]c2ncccc2c1=O,-4.93%
2,CC(C)(C)c1ccc(C(=O)NCc2cccnc2)cc1,19.3%
3,O=c1c2cc(Cl)ccc2nc(-c2ccccc2Cl)n1O,15.4%
4,CCOc1ccc(CCn2c(-c3ccco3)nc3ccccc3c2=O)cc1OCC,5.96%
5,O=Cc1ccc(OCC(=O)Nc2ccccc2-c2ccccc2)cc1,-9.63%
6,O=C(O)c1cccnc1SC1CC(=O)N(CCc2ccccc2)C1=O (centres unmarked),3.07%
7,CCCCn1c(=O)cc(O)c2ccccc21,13.6%
8,CSCCCNC(=S)Nc1ccc(N2CCOCC2)cc1,28%
9,Cc1ccc(Cl)cc1N1CCN(CC(=O)Nc2ccc(CN3CCCCC3)cc2)CC1.Cl,-21.6%
10,CC(C(=O)Nc1ccc(F)cc1Cl)N(C)CCOc1ccccc1 (centres unmarked),3.18%
11,CCCCn1c(-c2ccc(Br)cc2F)nc2c1c(=O)[nH]c(=O)n2CC(C)C,9.08%
12,CCOC(=O)C1=C(C)NC(=O)NC1c1ccsc1 (centres unmarked),8.25%
13,COc1ccc(C(=O)c2cc(C(C)=O)c(Nc3ccccc3)s2)cc1,-5.05%
14,CCC1(c2ccc(F)cc2)NC(=O)N(CC(=O)N2CCc3ccccc32)C1=O (centres unmarked),-2.15%
15,CCCNC(=O)c1ccc2c(c1)ncn2-c1ccccc1OC,-31.8%
16,CN(CC(=O)Nc1sc2c(c1C#N)CCCCC2)Cc1nc2ccccc2c(=O)[nH]1,14.8%
17,O=C(NCc1ccc(Cl)cc1)C(=O)NCC1OCCN1S(=O)(=O)c1ccc2c(c1)OCCO2 (centres unmarked),5.43%
18,Cc1nnc(NC(=O)C2CCCN(c3ncccn3)C2)s1 (centres unmarked),2.94%
19,CCC(C)[C@H]1COCCS(=O)(=O)N1Cc1ccc(Cl)cc1Cl (some centres unmarked),-10.8%
20,CCCn1nc(C(=O)N2CCN(S(=O)(=O)c3ccc(C)c(C)c3)CC2)c2ccccc2c1=O,7.33%
21,O=C(NCc1ccc2c(c1)OCO2)c1ccccc1Cl,9.01%
22,O=C1CN(c2cc(Cl)cc(Cl)c2)C(=O)CN1/N=C/c1cccnc1,5.68%
